The other results are listed elsewhere or left out. Many values rest on one well or one pass, so single values are uncertain.
Experiments:
Assay in all cases: cell count relative to DMSO control; melanoma cells; higher = more viable cells
Details in all cases: library dose: low library concentration; 72 h
[1] = system: MZ2-MEL
[2] = system: MeWo
[3] = system: RPMI7951
[4] = system: RVH-421
[5] = system: SkMel28
[6] = system: SkMel2
[7] = system: SkMel30
[8] = system: UACC62
[9] = system: WM115
[10] = system: WM1716
[11] = system: WM1745
[12] = system: WM3526
[13] = system: WM3619
[14] = system: WM451Lu
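Note: cell number obtained by counting DAPI-stained nuclei in high-throughput microscope images with image analysis software, screen run in 1,536-well plates.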

SMILES | cell count [1] [%] | cell count [2] [%] | cell count [3] [%] | cell count [4] [%] | cell count [5] [%] | cell count [6] [%] | cell count [7] [%] | cell count [8] [%] | cell count [9] [%] | cell count [10] [%] | cell count [11] [%] | cell count [12] [%] | cell count [13] [%] | cell count [14] [%]
CC(=O)O[C@@]12CO[C@@H]1C[C@H](O)[C@@]1(C)C(=O)[C@H](O)C3=C(C)[C@@H](OC(=O)[C@H](O)[C@@H](NC(=O)OC(C)(C)C)c4ccccc4)C[C@@](O)([C@@H](OC(=O)c4ccccc4)[C@H]21)C3(C)C [Docetaxel] + NC1(c2ccc(-c3nc4ccn5c(=O)[nH]nc5c4cc3-c3ccccc3)cc2)CCC1 [MK2206] (first compound 0.0001 µM, partner dose 0.4 µM) | 41.3 | 35 | 44.5 | 56.3 | 22.7 | 38.2 | 36.5 | 36.8 | 48.7 | 34.7 | 53.1 | 37.4 | 58.6 | 62.2
CC(=O)O[C@@]12CO[C@@H]1C[C@H](O)[C@@]1(C)C(=O)[C@H](O)C3=C(C)[C@@H](OC(=O)[C@H](O)[C@@H](NC(=O)OC(C)(C)C)c4ccccc4)C[C@@](O)([C@@H](OC(=O)c4ccccc4)[C@H]21)C3(C)C [Docetaxel] + CNC(=O)c1cc(Oc2ccc(NC(=O)Nc3ccc(Cl)c(C(F)(F)F)c3)cc2)ccn1 [sorafenib] (first compound 0.0001 µM, partner dose 0.4 µM) | 42.3 | 44.1 | 39 | 54.8 | 46 | 33.6 | 30.8 | 40.5 | 60.2 | 32.9 | 52.3 | 38.5 | 49.3 | 63.2
CC(=O)O[C@@]12CO[C@@H]1C[C@H](O)[C@@]1(C)C(=O)[C@H](O)C3=C(C)[C@@H](OC(=O)[C@H](O)[C@@H](NC(=O)OC(C)(C)C)c4ccccc4)C[C@@](O)([C@@H](OC(=O)c4ccccc4)[C@H]21)C3(C)C [Docetaxel] + O=C(O)[C@@H]1[O][Sb](=[O])([O][Sb]2(=[O])[O][C@H]([C@H](O)CO)[C@H](O)[C@H](C(=O)O)[O]2)[O][C@H]([C@H](O)CO)[C@@H]1O [stibogluconate] (first compound 0.0001 µM, partner dose 2 µM) | 49.6 | 45.8 | 42.8 | 68.1 | 62.8 | 52.5 | 48.6 | 42.9 | 67.9 | 48.3 | 54.3 | 58.8 | 69.8 | 63.3
Nc1ccn([C@@H]2O[C@H](CO)[C@@H](O)C2(F)F)c(=O)n1 [gemcitabine] + C=CCNC1=C2C[C@@H](C)C[C@H](OC)[C@H](O)[C@@H](C)/C=C(\C)[C@H](OC(N)=O)[C@@H](OC)/C=C\C=C(/C)C(=O)NC(=CC1=O)C2=O [Tanespimycin] (first compound 0.0004 µM, partner dose 0.002 µM) | 90.7 | 94.3 | 101 | 78.7 | 99.1 | 98.3 | 79.2 | 81.1 | 83.2 | 94.3 | 68.1 | 87.8 | 44.4 | 115
CC(=O)O[C@@]12CO[C@@H]1C[C@H](O)[C@@]1(C)C(=O)[C@H](O)C3=C(C)[C@@H](OC(=O)[C@H](O)[C@@H](NC(=O)OC(C)(C)C)c4ccccc4)C[C@@](O)([C@@H](OC(=O)c4ccccc4)[C@H]21)C3(C)C [Docetaxel] + Nc1nc(F)nc2c1ncn2[C@@H]1O[C@H](CO)[C@@H](O)[C@@H]1O [fludarabine] (first compound 0.0001 µM, partner dose 0.2 µM) | 44.3 | 20.6 | 34.3 | 64.3 | 26.9 | 8.37 | 17.5 | 30.4 | 58.1 | 31.9 | 42.7 | 24.2 | 58 | 41.8
Nc1nc(F)nc2c1ncn2[C@@H]1O[C@H](CO)[C@@H](O)[C@@H]1O [fludarabine] + Clc1ccc(Nc2nnc(Cc3ccncc3)c3ccccc23)cc1 [vatalanib] (first compound 0.2 µM, partner dose 2 µM) | 90 | 28.8 | 79 | 82.6 | 78.7 | 3.25 | 15.2 | 79.4 | 88 | 98.2 | 92.7 | 19.7 | 87.2 | 45
Nc1ccn([C@@H]2O[C@H](CO)[C@@H](O)C2(F)F)c(=O)n1 [gemcitabine] + Cn1c(Nc2ccc(C(F)(F)F)cc2)nc2cc(Oc3ccnc(-c4ncc(C(F)(F)F)[nH]4)c3)ccc21 [CHIR265] (first compound 0.0004 µM, partner dose 0.08 µM) | 73.1 | 70.8 | 60.7 | 60.1 | 84.2 | 85.1 | 54.9 | 44.6 | 79.8 | 71.6 | 70 | 70.3 | 60.8 | 116
CC(=O)O[C@@]12CO[C@@H]1C[C@H](O)[C@@]1(C)C(=O)[C@H](O)C3=C(C)[C@@H](OC(=O)[C@H](O)[C@@H](NC(=O)OC(C)(C)C)c4ccccc4)C[C@@](O)([C@@H](OC(=O)c4ccccc4)[C@H]21)C3(C)C [Docetaxel] + Cc1cc(Nc2cc(N3CCN(C)CC3)nc(/C=C/c3ccccc3)n2)n[nH]1 [ENMD2076] (first compound 0.0001 µM, partner dose 0.04 µM) | 55.6 | 61.3 | 37.2 | 56.4 | 41.2 | 46.5 | 48.5 | 66.9 | 77.9 | 56.3 | 63.6 | 60.5 | 62.2 | 95.2
Nc1ccn([C@@H]2O[C@H](CO)[C@@H](O)C2(F)F)c(=O)n1 [gemcitabine] + Nc1nc(F)nc2c1ncn2[C@@H]1O[C@H](CO)[C@@H](O)[C@@H]1O [fludarabine] (first compound 0.0004 µM, partner dose 0.2 µM) | 89.9 | 36.2 | 77.5 | 72.8 | 78 | 11.2 | 19.1 | 78.5 | 86.7 | 92.2 | 59.3 | 25 | 49.6 | 54.7
CC(=O)O[C@@]12CO[C@@H]1C[C@H](O)[C@@]1(C)C(=O)[C@H](O)C3=C(C)[C@@H](OC(=O)[C@H](O)[C@@H](NC(=O)OC(C)(C)C)c4ccccc4)C[C@@](O)([C@@H](OC(=O)c4ccccc4)[C@H]21)C3(C)C [Docetaxel] + C=CCNC1=C2C[C@@H](C)C[C@H](OC)[C@H](O)[C@@H](C)/C=C(\C)[C@H](OC(N)=O)[C@@H](OC)/C=C\C=C(/C)C(=O)NC(=CC1=O)C2=O [Tanespimycin] (first compound 0.0001 µM, partner dose 0.002 µM) | 39.8 | 48.3 | 35.3 | 68.3 | 37.5 | 44.8 | 29.4 | 44.7 | 60.3 | 40.4 | 61.9 | 32.6 | 63.2 | 53.4
CC(=O)c1c(C)c2cnc(Nc3ccc(N4CCNCC4)cn3)nc2n(C2CCCC2)c1=O [palbociclib] + Cc1nc(Nc2ncc(C(=O)Nc3c(C)cccc3Cl)s2)cc(N2CCN(CCO)CC2)n1 [dasatanib] (first compound 0.04 µM, partner dose 0.004 µM) | 70.3 | 69.3 | 80.6 | 60.6 | 65.3 | 82.9 | 62.9 | 60.3 | 62.3 | 56.9 | 70.7 | 74.9 | 57.3 | 73.2
CC(=O)O[C@@]12CO[C@@H]1C[C@H](O)[C@@]1(C)C(=O)[C@H](O)C3=C(C)[C@@H](OC(=O)[C@H](O)[C@@H](NC(=O)OC(C)(C)C)c4ccccc4)C[C@@](O)([C@@H](OC(=O)c4ccccc4)[C@H]21)C3(C)C [Docetaxel] + C[C@]1(c2nc3c(C(N)=O)cccc3[nH]2)CCCN1 [Veliparib] (first compound 0.0001 µM, partner dose 1.4 µM) | 41.3 | 44.7 | 28.9 | 56.2 | 34.9 | 38.5 | 33.1 | 35.5 | 59.1 | 31.9 | 53.1 | 36.2 | 73.2 | 47
Nc1ncn([C@H]2C[C@H](O)[C@@H](CO)O2)c(=O)n1 [decitabine] + Nc1cccc2c1CN(C1CCC(=O)NC1=O)C2=O [lenalidomide] (first compound 0.1 µM, partner dose 1 µM) | 84.6 | 94.1 | 85.5 | 97.4 | 88 | 114 | 107 | 65.6 | 84 | 83.6 | 78.5 | 93.8 | 87.8 | 102
Nc1nc(F)nc2c1ncn2[C@@H]1O[C@H](CO)[C@@H](O)[C@@H]1O [fludarabine] + C#Cc1cccc(Nc2ncnc3cc(OCCOC)c(OCCOC)cc23)c1 [erlotinib] (first compound 0.2 µM, partner dose 0.8 µM) | 95.1 | 32.8 | 93.1 | 102 | 78.2 | 5.95 | 24.4 | 80.7 | 88.1 | 81.5 | 90.9 | 27.8 | 114 | 41.2
Nc1nc(F)nc2c1ncn2[C@@H]1O[C@H](CO)[C@@H](O)[C@@H]1O [fludarabine] + COc1ccc(Cl)c(Nc2nc3ccccc3nc2NS(=O)(=O)c2cccc(NC(=O)C(C)(C)N)c2)c1 [XL147] (first compound 0.2 µM, partner dose 0.8 µM) | 98.7 | 29 | 89.2 | 106 | 72.8 | 5.53 | 20.3 | 83.4 | 90.3 | 93.1 | 119 | 29.1 | 106 | 46.5
Nc1ncn([C@H]2C[C@H](O)[C@@H](CO)O2)c(=O)n1 [decitabine] + C[C@]1(c2nc3c(C(N)=O)cccc3[nH]2)CCCN1 [Veliparib] (first compound 0.1 µM, partner dose 1.4 µM) | 83.4 | 120 | 85.7 | 87 | 82.2 | 93.8 | 86.8 | 66.1 | 77.5 | 78.7 | 116 | 130 | 84.1 | 99.5
Nc1nc(F)nc2c1ncn2[C@@H]1O[C@H](CO)[C@@H](O)[C@@H]1O [fludarabine] + Nc1ncn([C@H]2C[C@H](O)[C@@H](CO)O2)c(=O)n1 [decitabine] (first compound 0.2 µM, partner dose 0.1 µM) | 89 | 25 | 64.6 | 78.7 | 59 | 3.44 | 16.7 | 71.3 | 82.1 | 82 | 103 | 29.5 | 90 | 57.6

Source: the supplement of paper PMC4604168 (melanoma cell lines)
